Out of some 39,000 compounds screened, about 220 (0.56%) showed activity. This is one part of the list.
Tested on: Escherichia coli K-12 BW25113
Test: relative growth (OD600 normalised to plate interquartile mean) (fraction); higher = less growth inhibition, active = 0.2 or less
Conditions: 50 µM; LB; incubation time: overnight (16-24 h)
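Note: static incubation at 37 °C against the wild-type strain, values averaged over two biological replicates.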

Compound	relative growth
C[C@@H]1CCCCO[C@H](CN(C)C(=O)Nc2ccc3c(c2)OCO3)[C@H](C)CN([C@@H](C)CO)C(=O)c2cc(NC(=O)CCC(F)(F)F)ccc2O1	inactive: 0.977
CCCCC(CC)COc1ccc(-c2nc(-c3ccc(OC)cc3)nc(-c3ccc(OCC(CC)CCCC)cc3O)n2)c(O)c1 (stereo not given)	inactive: 1.17
C[C@@H]1CN([C@H](C)CO)C(=O)c2cc(NC(=O)Nc3ccc4c(c3)OCO4)ccc2O[C@@H](C)CCCCO[C@@H]1CN(C)S(=O)(=O)c1cccs1	inactive: 1.04
C[C@H]1CCN=C(N)S1	inactive: 0.969
C[C@H]1CN([C@@H](C)CO)C(=O)Cc2cc(NC(=O)Nc3ccc(F)cc3)ccc2O[C@H]1CN(C)C(=O)Nc1cccc2ccccc12	inactive: 0.958
C[C@@H]1CCCCO[C@H](CN(C)S(C)(=O)=O)[C@@H](C)CN([C@@H](C)CO)C(=O)c2cc(NC(=O)c3ccncc3)ccc2O1	inactive: 1.02
COc1cccc(NC(=O)N(C)C[C@H]2Oc3ncc(C#Cc4ccncc4)cc3C(=O)N([C@@H](C)CO)C[C@@H]2C)c1	inactive: 0.996
O=C(c1ccncc1)N1C[C@@H]2[C@H](c3ccccc31)[C@H](CO)N2C(=O)CN1CCOCC1	inactive: 1
CCC(=O)N1C[C@]2(CN(C2)C(=O)CN2CCOCC2)c2c([nH]c3cc(ccc23)OC)[C@@H]1CO	inactive: 1.01
C[C@H](CO)N1C[C@H](C)[C@@H](CN(C)Cc2ccc(C(=O)O)cc2)Oc2ccc(NC(=O)C3CC3)cc2C1=O	inactive: 0.996
CN(CCO)c1ccccn1	inactive: 0.987
Cc1ccc(S(=O)(=O)Nc2ccc3c(c2)C(=O)N([C@H](C)CO)C[C@@H](C)[C@H](CN(C)S(=O)(=O)c2ccc(C)cc2)OCCCC[C@H](C)O3)cc1	inactive: 0.988
C[C@H](CO)N1C[C@H](C)[C@@H](CN(C)S(=O)(=O)c2cn(C)cn2)Oc2ccc(NS(=O)(=O)c3ccccc3)cc2CC1=O	inactive: 1
COCC#Cc1cnc2c(c1)C(=O)N([C@@H](C)CO)C[C@H](C)[C@H](CN(C)C(C)=O)O2	inactive: 0.97
COc1ccc(-c2cc(=O)c3c(OC)c(OC)c(OC)c(OC)c3o2)cc1OC	inactive: 0.834
C[C@@H]1CN([C@@H](C)CO)C(=O)Cc2cc(NC(=O)Nc3ccc(F)cc3)ccc2O[C@@H]1CN(C)CC1CCCCC1	inactive: 0.967
C[C@@H]1CN([C@@H](C)CO)C(=O)c2cc(NS(=O)(=O)c3cccs3)ccc2O[C@@H](C)CCCCO[C@@H]1CN(C)C(=O)c1ccccc1	inactive: 1.01
COc1ccc(S(=O)(=O)Nc2ccc3c(c2)CC(=O)N([C@H](C)CO)C[C@H](C)[C@H](CN(C)S(=O)(=O)c2cn(C)cn2)O3)cc1	inactive: 0.971
C[C@@H]1CN([C@@H](C)CO)C(=O)Cc2cc(NS(=O)(=O)c3cn(C)cn3)ccc2O[C@@H]1CN(C)S(=O)(=O)c1ccc(Cl)cc1	inactive: 0.984
COCC(=O)Nc1ccc2c(c1)C(=O)N(C)[C@@H]1CC[C@H](CC(=O)NC3Cc4ccccc4C3)O[C@@H]1CO2	inactive: 1.03

Compound	relative growth
Cc1ccc(S(=O)(=O)Nc2ccc3c(c2)C(=O)N([C@@H](C)CO)C[C@H](C)[C@@H](CN(C)Cc2ccncc2)OCCCC[C@H](C)O3)cc1	inactive: 0.98
CC(C)[C@H]1COC(=O)N1	inactive: 0.987
Cc1ccc(S(=O)(=O)Nc2ccc3c(c2)CC(=O)N([C@@H](C)CO)C[C@@H](C)[C@H](CN(C)Cc2ccncc2)O3)cc1	inactive: 1.01
C[C@@H]1CN([C@@H](C)CO)C(=O)c2cc(NS(=O)(=O)c3ccccc3)ccc2O[C@H]1CN(C)S(=O)(=O)c1cn(C)cn1	inactive: 0.9
C[C@H]1CN([C@@H](C)CO)C(=O)c2cccc(NC(=O)Nc3ccc(C(F)(F)F)cc3)c2O[C@H]1CN(C)C(=O)Nc1cccc2ccccc12	inactive: 0.937
O=C(C[C@@H]1CC[C@@H](NC(=O)c2cccnc2)[C@H](CO)O1)NCCN1CCCCC1	inactive: 0.987
COc1ccc(O)c(N)c1	inactive: 0.989
C[C@H](CO)N1C[C@H](C)[C@@H](CN(C)Cc2ccc(Oc3ccccc3)cc2)Oc2ccc(NS(=O)(=O)c3cccs3)cc2CC1=O	inactive: 0.96
COC(CN(C)C(=O)c1cn(C)c2ccc(S(=O)(=O)N3CCOCC3)cc2c1=O)OC	inactive: 0.971
C[C@H](CO)N1C[C@H](C)[C@@H](CN(C)C(=O)Nc2ccc(F)cc2)OCCCC[C@H](C)Oc2ccc(NC(=O)Nc3ccc(C(F)(F)F)cc3)cc2C1=O	inactive: 1.03
c1ccc(-c2nc(C34CC5CC(CC(C5)C3)C4)cs2)cc1	inactive: 1.03
Cn1cnc(S(=O)(=O)N2C[C@@H](O)COC[C@@H]3O[C@@H](CC(=O)NC4CCC4)CC[C@H]32)c1	inactive: 0.999
COc1ccc(S(=O)(=O)N(C)C[C@@H]2Oc3ccc(NC(=O)CCCN(C)C)cc3CC(=O)N([C@H](C)CO)C[C@H]2C)cc1	inactive: 0.973
COc1ccc(C#Cc2cccc(-c3nc(C(=O)N[C@@H]4CCN(Cc5ccccc5)C4)cc4c3[C@H](CCO)N(S(=O)C(C)(C)C)C4)c2)cc1OC (stereo not given in full)	inactive: 1.01
CO[C@H]1CN(C)C(=O)c2cc(NC(=O)Nc3cccc(Cl)c3)ccc2OC[C@H](C)N(C(=O)Nc2c(C)noc2C)C[C@H]1C	inactive: 0.989
Cc1noc(C)c1NC(=O)N(C)C[C@H]1Oc2ccc(NC(=O)NC(C)C)cc2CC(=O)N([C@@H](C)CO)C[C@H]1C	inactive: 1
Cc1ccc(S(=O)(=O)N(C)C[C@@H]2OCCCC[C@H](C)Oc3ccc(NC(=O)Nc4c(C)noc4C)cc3C(=O)N([C@H](C)CO)C[C@@H]2C)cc1	inactive: 0.99
Cc1noc(C)c1NC(=O)Nc1ccc2c(c1)C(=O)N([C@H](C)CO)C[C@@H](C)[C@@H](CN(C)Cc1ccncc1)OCCCC[C@H](C)O2	inactive: 0.976
CCCN1C[C@@H](C)[C@@H](OC)CN(C)C(=O)c2ccc(NS(=O)(=O)c3cn(C)cn3)cc2OC[C@@H]1C	inactive: 0.997
C[C@@H]1CN([C@H](C)CO)C(=O)c2cccc(NC(=O)c3cnccn3)c2O[C@H]1CN(C)Cc1ccncc1	inactive: 0.993

Compound	relative growth
COc1ccc(NC(=O)Nc2ccc3c(c2)C(=O)N([C@@H](C)CO)C[C@H](C)[C@@H](CN(C)C(=O)Nc2ccc(F)cc2)OCCCC[C@H](C)O3)cc1	inactive: 1.03
C=CCC[C@@H](Cc1ccc(F)cc1)C(=O)OC[C@@H](NC(=O)[C@H](CC=C)CC(=O)N(CCO)Cc1ccccc1)c1ccccc1	inactive: 1.09
C[C@@H]1CCCCO[C@@H](CN(C)S(=O)(=O)c2cccs2)[C@@H](C)CN([C@H](C)CO)C(=O)c2cc(NC(=O)CCCCCC(=O)Nc3ccccc3N)ccc2O1	inactive: 1.03
Cc1cc(C)c(NC(=O)[C@@H](N)Cc2ccccc2)c(Cl)c1	inactive: 1.02
C[C@@H]1CN([C@@H](C)CO)S(=O)(=O)c2ccc(C#CCN(C)C)cc2O[C@@H]1CN(C)Cc1ccc2c(c1)OCO2	inactive: 1
CC(=O)c1ccn[nH]1	inactive: 1.01
NC(Cc1cc(I)c(Oc2ccc(O)c(I)c2)c(I)c1)C(=O)[O-].[Na+] [LIOTHYRONINE (L- isomer) SODIUM]	inactive: 0.951
CO[C@@H](CN(C)S(=O)(=O)c1ccc(Cl)cc1)[C@@H](C)CN([C@@H](C)CO)S(=O)(=O)c1cccc(Cl)c1	inactive: 1.02
C[C@@H]1CN([C@@H](C)CO)C(=O)c2cc(C#CCC3CCCC3)cnc2O[C@H]1CN(C)C(=O)c1cnccn1	inactive: 0.877
C[C@@H]1CCCCO[C@H](CN(C)C(=O)c2ccccc2)[C@H](C)CN([C@@H](C)CO)C(=O)c2cc(NC(=O)c3ccccc3)ccc2O1	inactive: 0.983
Cc1cc(C(=O)Nc2cccc3c2O[C@H](CN(C)Cc2ccncc2)[C@H](C)CN([C@@H](C)CO)C3=O)n(C)n1	inactive: 1.01
Cc1ccc(S(=O)(=O)Nc2ccc3c(c2)C(=O)N([C@H](C)CO)C[C@H](C)[C@@H](CN(C)S(=O)(=O)c2ccc(Cl)cc2)OCCCC[C@@H](C)O3)cc1	inactive: 0.993
CO[C@@H]1CN(C)C(=O)c2ccc(NC(=O)Nc3cccc(Cl)c3)cc2OC[C@H](C)N(C(=O)Nc2c(C)noc2C)C[C@H]1C	inactive: 1.02
COc1cccc(S(=O)(=O)N(C)C[C@H]2Oc3ncc(C#CC(C)C)cc3C(=O)N([C@@H](C)CO)C[C@H]2C)c1	inactive: 1
C[C@@H]1CN([C@H](C)CO)C(=O)c2cccc(NS(=O)(=O)c3cn(C)cn3)c2O[C@@H]1CN(C)CC1CC1	inactive: 0.989
Cc1ccc(S(=O)(=O)Nc2ccc3c(c2)C(=O)N([C@H](C)CO)C[C@@H](C)[C@@H](CN(C)C(=O)Nc2ccc4c(c2)OCO4)OCCCC[C@H](C)O3)cc1	inactive: 0.976
CN1CCN(C(=O)C[C@@H]2C[C@H]3c4cc(NS(=O)(=O)c5ccc(F)cc5)ccc4O[C@H]3[C@@H](CO)O2)CC1	inactive: 1
C[C@H](O)C#Cc1cnc2c(c1)C(=O)N([C@H](C)CO)C[C@H](C)[C@@H](CN(C)C(=O)CN1CCOCC1)O2	inactive: 0.996
C[C@H]1CN([C@@H](C)CO)C(=O)c2cc(NC(=O)Cc3ccccc3)ccc2O[C@@H]1CN(C)S(=O)(=O)c1ccccc1	inactive: 0.959
CCS(=O)(=O)N1C[C@]2(CN(Cc3ccc4c(c3)OCO4)[C@H](CO)c3c2c2ccc(cc2n3C)OC)C1	inactive: 1.02

Source: the supplement of paper PMC9446081
